Laboratory results reported in the supplement of paper PMC11876631.
± gives the standard deviation of the averaged measurements. Laboratory Escherichia coli strains with one amino-acid change in an essential protein, pooled on minimal glucose agar with carbenicillin or gentamicin at twice the control MIC (plus kanamycin and chloramphenicol for the plasmids), 48 h. Fold change of barcode share against drug-free plates; higher = less susceptible. Active = above 20 in both replicates (the paper's putatively resistant). '<' = one read or none on drug, '>' = one read or none on a drug-free plate. Shares are relative, so most strains fall below 1 when a few take over. Listed are strains with at least 15 reads on both drug-free plates, and hits; most hits rest on fewer reference reads. Replicate rank correlation about 0.5. Edits are read from barcodes.

Biological target: Escherichia coli (laboratory strain)
Experiment: barcode share on antibiotic plates over drug-free plates; higher = less susceptible
Conditions: antibiotic: gentamicin; 2× MIC (MIC 0.45 µg/mL)
Procedure: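 A pool of E. coli strains, each edited to carry one amino-acid change in an essential protein, was grown for 48 h on minimal glucose agar with or without antibiotic; strain barcodes were sequenced; mean of two replicates.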

Protein | fold change of barcode share
ribA L86A (protein) MQLKRVAEAKLPTPWGDFLMVGFEELATGHDHVALVYGDISGHTPVLARVHSECLTGDALFSLRCDCGFQLEAALTQIAEEGRGIALYHRQEGRNIGLLNKIRAYALQDQGYDTVEANHQLGFAADERDFTLCADMFKLLGVNEVRLLTNNPKKVEILTEAGINIVERVPLIVGRNPNNEHYLDTKAEKMGHLLNK | < 0.0171
ribA F137Q (protein) MQLKRVAEAKLPTPWGDFLMVGFEELATGHDHVALVYGDISGHTPVLARVHSECLTGDALFSLRCDCGFQLEAALTQIAEEGRGILLYHRQEGRNIGLLNKIRAYALQDQGYDTVEANHQLGFAADERDFTLCADMQKLLGVNEVRLLTNNPKKVEILTEAGINIVERVPLIVGRNPNNEHYLDTKAEKMGHLLNK | < 0.0211
rnpA V86A (protein) MVKLAFPRELRLLTPSQFTFVFQQPQRAGTPQITILGRLNSLGHPRIGLTVAKKNVRRAHERNRIKRLTRESFRLRQHELPAMDFAVVAKKGVADLDNRALSEALEKLWRRHCRLARGS | < 0.0208
rnpA V93D (protein) MVKLAFPRELRLLTPSQFTFVFQQPQRAGTPQITILGRLNSLGHPRIGLTVAKKNVRRAHERNRIKRLTRESFRLRQHELPAMDFVVVAKKGDADLDNRALSEALEKLWRRHCRLARGS | 0.0198 ± 0.003
rnpA L105P (protein) MVKLAFPRELRLLTPSQFTFVFQQPQRAGTPQITILGRLNSLGHPRIGLTVAKKNVRRAHERNRIKRLTRESFRLRQHELPAMDFVVVAKKGVADLDNRALSEAPEKLWRRHCRLARGS | 0.0273 ± 0.0057
pyrH M37A (protein) MATNAKPVYKRILLKLSGEALQGTEGFGIDASILDRAAQEIKELVELGIQVGVVIGGGNLFRGAGLAKAGMNRVVGDHMGMLATVMNGLAMRDALHRAYVNARLMSAIPLNGVCDSYSWAEAISLLRNNRVVILSAGTGNPFFTTDSAACLRGIEIEADVVLKATKVDGVFTADPAKDPTATMYEQLTYSEVLEKELKVMDLAAFTLARDHKLPIRVFNMNKPGALRRVVMGEKEGTLITE | 0.00721 ± 0.0042
pyrH M37D (protein) MATNAKPVYKRILLKLSGEALQGTEGFGIDASILDRDAQEIKELVELGIQVGVVIGGGNLFRGAGLAKAGMNRVVGDHMGMLATVMNGLAMRDALHRAYVNARLMSAIPLNGVCDSYSWAEAISLLRNNRVVILSAGTGNPFFTTDSAACLRGIEIEADVVLKATKVDGVFTADPAKDPTATMYEQLTYSEVLEKELKVMDLAAFTLARDHKLPIRVFNMNKPGALRRVVMGEKEGTLITE | < 0.00806
accD V121W (protein) MSWIERIKSNITPTRKASIPEGVWTKCDSCGQVLYRAELERNLEVCPKCDHHMRMTARNRLHSLLDEGSLVELGSELEPKDVLKFRDSKKYKDRLASAQKETGEKDALVVMKGTLYGMPVWAAAFEFAFMGGSMGSVVGARFVRAVEQALEDNCPLICFSASGGARMQEALMSLMQMAKTSAALAKMQERGLPYISVLTDPTMGGVSASFAMLGDLNIAEPKALIGFAGPRVIEQTVREKLPPGFQRSEFLIEKGAIDMIVRRPEMRLKLASILAKLMNLPAPNPEAPREGVVVPPVPDQEPEA | 0.00938 ± 0.0036
secY I61W (protein) MAKQPGLDFQSAKGGLGELKRRLLFVIGALIVFRIGSFIPIPGIDAAVLAKLLEQQRGTIWEMFNMFSGGALSRASIFALGIMPYISASIIIQLLTVVHPTLAEIKKEGESGRRKISQYTRYGTLVLAIFQSIGIATGLPNMPGMQGLVINPGFAFYFTAVVSLVTGTMFLMWLGEQITERGIGNGISIIIFAGIVAGLPPAIAHTIEQARQGDLHFLVLLLVAVLVFAVTFFVVFVERGQRRIVVNYAKRQQGRRVYAAQSTHLPLKVNMAGVIPAIFASSIILFPATIASWFGGGTGWNWLTTISLYLQPGQPLYVLLYASAIIFFCFFYTALVFNPRETADNLKKSGAFVPGIRPGEQTAKYIDKVMTRLTLVGALYITFICLIPEFMRDAMKVPFYFGGTSLLIVVVVIMDFMAQVQTLMMSSQYESALKKANLKGYGR | < 0.0176
secY I61Q (protein) MAKQPGLDFQSAKGGLGELKRRLLFVIGALIVFRIGSFIPIPGIDAAVLAKLLEQQRGTIQEMFNMFSGGALSRASIFALGIMPYISASIIIQLLTVVHPTLAEIKKEGESGRRKISQYTRYGTLVLAIFQSIGIATGLPNMPGMQGLVINPGFAFYFTAVVSLVTGTMFLMWLGEQITERGIGNGISIIIFAGIVAGLPPAIAHTIEQARQGDLHFLVLLLVAVLVFAVTFFVVFVERGQRRIVVNYAKRQQGRRVYAAQSTHLPLKVNMAGVIPAIFASSIILFPATIASWFGGGTGWNWLTTISLYLQPGQPLYVLLYASAIIFFCFFYTALVFNPRETADNLKKSGAFVPGIRPGEQTAKYIDKVMTRLTLVGALYITFICLIPEFMRDAMKVPFYFGGTSLLIVVVVIMDFMAQVQTLMMSSQYESALKKANLKGYGR | < 0.0171
ribC V26W (protein) MFTGIVQGTAKLVSIDEKPNFRTHVWELPDHMLDGLETGASVAHNGCCLTVTEINGNHVSFDLMKETLRITNLGDLKVGDWVNVERAAKFSDEIGGHLMSGHIMTTAEVAKILTSENNRQIWFKVQDSQLMKYILYKGFIGIDGISLTVGEVTPTRFCVHLIPETLERTTLGKKKLGARVNIEIDPQTQAVVDTVERVLAARENAMNQPGTEA | < 0.0215
ribC M99D (protein) MFTGIVQGTAKLVSIDEKPNFRTHVVELPDHMLDGLETGASVAHNGCCLTVTEINGNHVSFDLMKETLRITNLGDLKVGDWVNVERAAKFSDEIGGHLDSGHIMTTAEVAKILTSENNRQIWFKVQDSQLMKYILYKGFIGIDGISLTVGEVTPTRFCVHLIPETLERTTLGKKKLGARVNIEIDPQTQAVVDTVERVLAARENAMNQPGTEA | 45 [active]
bioF L104A (protein) MSWQEKINAALDARRAADALRRRYPVAQGAGRWLVADDRQYLNFSSNDYLGLSHHPQIIRAWQQGAEQFGIGSGGSGHVSGYSVVHQALEEELAEWLGYSRALAFISGFAANQAVIAAMMAKEDRIAADRLSHASLLEAASLSPSQLRRFAHNDVTHLARLLASPCPGQQMVVTEGVFSMDGDSAPLAEIQQVTQQHNGWLMVDDAHGTGVIGEQGRGSCWLQKVKPELLVVTFGKGFGVSGAAVLCSSTVADYLLQFARHLIYSTSMPPAQAQALRASLAVIRSDEGDARREKLAALITRFRAGVQDLPFTLADSCSAIQPLIVGDNSRALQLAEKLRQQGCWVTAIRPPTVPAGTARLRLTLTAAHEMQDIDRLLEVLHGNG | 0.00517 ± 0.0027
bioF L104W (protein) MSWQEKINAALDARRAADALRRRYPVAQGAGRWLVADDRQYLNFSSNDYLGLSHHPQIIRAWQQGAEQFGIGSGGSGHVSGYSVVHQALEEELAEWLGYSRALWFISGFAANQAVIAAMMAKEDRIAADRLSHASLLEAASLSPSQLRRFAHNDVTHLARLLASPCPGQQMVVTEGVFSMDGDSAPLAEIQQVTQQHNGWLMVDDAHGTGVIGEQGRGSCWLQKVKPELLVVTFGKGFGVSGAAVLCSSTVADYLLQFARHLIYSTSMPPAQAQALRASLAVIRSDEGDARREKLAALITRFRAGVQDLPFTLADSCSAIQPLIVGDNSRALQLAEKLRQQGCWVTAIRPPTVPAGTARLRLTLTAAHEMQDIDRLLEVLHGNG | 0.00538 ± 0.0013
bioF F105P (protein) MSWQEKINAALDARRAADALRRRYPVAQGAGRWLVADDRQYLNFSSNDYLGLSHHPQIIRAWQQGAEQFGIGSGGSGHVSGYSVVHQALEEELAEWLGYSRALLPISGFAANQAVIAAMMAKEDRIAADRLSHASLLEAASLSPSQLRRFAHNDVTHLARLLASPCPGQQMVVTEGVFSMDGDSAPLAEIQQVTQQHNGWLMVDDAHGTGVIGEQGRGSCWLQKVKPELLVVTFGKGFGVSGAAVLCSSTVADYLLQFARHLIYSTSMPPAQAQALRASLAVIRSDEGDARREKLAALITRFRAGVQDLPFTLADSCSAIQPLIVGDNSRALQLAEKLRQQGCWVTAIRPPTVPAGTARLRLTLTAAHEMQDIDRLLEVLHGNG | 0.00917 ± 0.00026
bioF L104D (protein) MSWQEKINAALDARRAADALRRRYPVAQGAGRWLVADDRQYLNFSSNDYLGLSHHPQIIRAWQQGAEQFGIGSGGSGHVSGYSVVHQALEEELAEWLGYSRALDFISGFAANQAVIAAMMAKEDRIAADRLSHASLLEAASLSPSQLRRFAHNDVTHLARLLASPCPGQQMVVTEGVFSMDGDSAPLAEIQQVTQQHNGWLMVDDAHGTGVIGEQGRGSCWLQKVKPELLVVTFGKGFGVSGAAVLCSSTVADYLLQFARHLIYSTSMPPAQAQALRASLAVIRSDEGDARREKLAALITRFRAGVQDLPFTLADSCSAIQPLIVGDNSRALQLAEKLRQQGCWVTAIRPPTVPAGTARLRLTLTAAHEMQDIDRLLEVLHGNG | 0.0101 ± 0.0039
bioF F105W (protein) MSWQEKINAALDARRAADALRRRYPVAQGAGRWLVADDRQYLNFSSNDYLGLSHHPQIIRAWQQGAEQFGIGSGGSGHVSGYSVVHQALEEELAEWLGYSRALLWISGFAANQAVIAAMMAKEDRIAADRLSHASLLEAASLSPSQLRRFAHNDVTHLARLLASPCPGQQMVVTEGVFSMDGDSAPLAEIQQVTQQHNGWLMVDDAHGTGVIGEQGRGSCWLQKVKPELLVVTFGKGFGVSGAAVLCSSTVADYLLQFARHLIYSTSMPPAQAQALRASLAVIRSDEGDARREKLAALITRFRAGVQDLPFTLADSCSAIQPLIVGDNSRALQLAEKLRQQGCWVTAIRPPTVPAGTARLRLTLTAAHEMQDIDRLLEVLHGNG | 0.00919 ± 0.002
